Laboratory results as given in a collection of fitness landscapes (doi:10.1126/science.1257360).
Some of the results follow.

B1: PhoQ; a variant is named by its letters at X, in order, P23837 (parent)
chain: MKKLLRLFFPLSLRVRFLLATAAVVLVLSLAYGMVALIGYSVSFDKTTFRLLRGESNLFYTLAKWENNKLHVELPENIDKQSPTMTLIYDENGQLLWAQRDVPWLMKMIQPDWLKSNGFHEIEADVNDTSLLLSGDHSIQQQLQEVREDDDDAEMTHSVAVNVYPATSRMPKLTIVVVDTIPVELKSSYMVWSWFIYVLSANLLLVIPLLWVAAWWSLRPIEALAKEVRELEEHNRELLNPATTRELTSLVRNLNRLLKSERERYDKYRTTLTDLTHSLKTPLXXLQXXLRSLRSEKMSVSDAEPVMLEQISRISQQIGYYLHRASMRGGTLLSRELHPVAPLLDNLTSALNKVYQRKGVNISLDISPEISFVGEQNDFVEVMGNVLDNACKYCLEFVEISARQTDEHLYIVVEDDGPGIPLSKREVIFDRGQRVDTLRPGQGVGLAVAREITEQYEGKIVAGESMLGGARMEVIFGRQHSAPKDE

Variants of: B1
Assay: enrichment ratio after two sorts for PhoP signalling (ratio (wild type AVST 3.29)); higher = more functional
Conditions: with PhoP (E. coli)

Variant	enrichment ratio
DSTR	≤ 0.25
IAAL	≤ 0.25
FEHN	≤ 0.25
NHPV	≤ 0.25
IKST	≤ 0.25
KQIK	≤ 0.25
PETT	≤ 0.25
LIPI	0.684
YFQK	≤ 0.25
HTIH	≤ 0.25
GWFP	≤ 0.25
FKDK	≤ 0.25
NVPG	≤ 0.25
EKYA	≤ 0.25
MFFQ	≤ 0.25
CTCL	≤ 0.25
KPFP	≤ 0.25
FRSS	≤ 0.25
QGRR	≤ 0.25
MARF	≤ 0.25
IGRT	≤ 0.25
MDMP	≤ 0.25
CCSF	≤ 0.25
SQYY	≤ 0.25
GGVY	≤ 0.25

Variant	enrichment ratio
YGHM	≤ 0.25
GIWL	≤ 0.25
NWFH	≤ 0.25
RAKS	≤ 0.25
SRKE	≤ 0.25
AVMW	≤ 0.25
LIDQ	≤ 0.25
RCNR	0.343
QHII	≤ 0.25
NARC	≤ 0.25
QGSS	14.4
DYQK	≤ 0.25
RPNH	≤ 0.25
IRVN	≤ 0.25
IGSN	≤ 0.25
QSKE	≤ 0.25
PGLR	≤ 0.25
VIHW	≤ 0.25
LMRE	≤ 0.25
GTKK	≤ 0.25
NTSW	≤ 0.25
KKLV	≤ 0.25
HGVW	≤ 0.25
LPSC	≤ 0.25
MQEI	≤ 0.25

Variant	enrichment ratio
MMSG	≤ 0.25
SMHP	≤ 0.25
KCHG	≤ 0.25
RIGK	≤ 0.25
HACH	≤ 0.25
KDTT	≤ 0.25
WPTF	≤ 0.25
VSSQ	≤ 0.25
PCQC	≤ 0.25
AQKN	≤ 0.25
ESRA	≤ 0.25
YCGY	≤ 0.25
GSHL	≤ 0.25
ICDL	≤ 0.25
ANNE	≤ 0.25
WLFI	≤ 0.25
IMNI	≤ 0.25
IWDW	≤ 0.25
HETR	≤ 0.25
HFTN	≤ 0.25
QNAY	3.17
IKHK	≤ 0.25
MSGA	0.29
LNQS	≤ 0.25
APSN	≤ 0.25

Variant	enrichment ratio
IFSA	≤ 0.25
EEAP	≤ 0.25
HYVS	≤ 0.25
TEEF	≤ 0.25
LDLR	≤ 0.25
TLVE	≤ 0.25
NQFV	≤ 0.25
SNTR	≤ 0.25
VAWF	≤ 0.25
PIRF	≤ 0.25
TVED	≤ 0.25
TSRE	≤ 0.25
QGLC	15.9
ECDN	≤ 0.25
TKKP	≤ 0.25
ENWF	≤ 0.25
NYMY	≤ 0.25
TLQV	10.2
DANP	≤ 0.25
HFHR	≤ 0.25
ICAS	≤ 0.25
VMWI	≤ 0.25
CKIQ	≤ 0.25
MQLA	≤ 0.25
MTTS	≤ 0.25

Variant	enrichment ratio
PNNW	≤ 0.25
DMLQ	≤ 0.25
QAYY	10.3
HHDG	≤ 0.25
VLRA	≤ 0.25
MTCF	1.4
DWLQ	≤ 0.25
AGRM	≤ 0.25
AMMR	5.86
KATG	≤ 0.25
VGGV	≤ 0.25
WMCE	≤ 0.25
TCFT	≤ 0.25
SAPM	2.5
GCAF	0.687
ENPV	≤ 0.25
WCKH	≤ 0.25
IVCK	≤ 0.25
HLCW	≤ 0.25
HHSI	≤ 0.25
WIDP	≤ 0.25
RVIW	≤ 0.25
AASI	10.4
GDCL	1.54
FADM	≤ 0.25

Variant	enrichment ratio
ETHP	≤ 0.25
TMMN	11.5
YFDR	≤ 0.25
TLEE	3.87
LIYH	≤ 0.25
LPMK	≤ 0.25
IFMC	≤ 0.25
MMDE	≤ 0.25
ETGC	≤ 0.25
QNDL	≤ 0.25
WTVV	≤ 0.25
TVCK	1.72
PMAC	≤ 0.25
TFFG	≤ 0.25
MYTQ	≤ 0.25
VNYR	≤ 0.25
KLLR	≤ 0.25
YQHG	≤ 0.25
STVW	2.42
TMGK	≤ 0.25
QMIL	≤ 0.25
GEFL	≤ 0.25
PSHF	≤ 0.25
KDIA	≤ 0.25
FDDL	≤ 0.25

Variant	enrichment ratio
SWVC	≤ 0.25
DGGM	≤ 0.25
GSNA	≤ 0.25
DCAS	≤ 0.25
GKFD	2.13
SVLE	1.71
SYCN	≤ 0.25
GGYQ	≤ 0.25
FERV	≤ 0.25
NHHY	≤ 0.25
KCGP	≤ 0.25
IWPN	≤ 0.25
QDCQ	≤ 0.25
RDTF	≤ 0.25
EVPY	≤ 0.25
FKRH	≤ 0.25
GNEF	≤ 0.25
WHHR	≤ 0.25
GNYK	1.18
TCVT	≤ 0.25
GLAE	≤ 0.25
TIPT	≤ 0.25
VYPF	1.11
MTLH	≤ 0.25
HHEQ	≤ 0.25

Variant	enrichment ratio
AWSN	≤ 0.25
GWIF	≤ 0.25
GVGS	≤ 0.25
REAH	4.16
FLKS	≤ 0.25
GDRQ	≤ 0.25
IPQK	≤ 0.25
SSRQ	≤ 0.25
GMQW	≤ 0.25
YFCH	≤ 0.25
YCGR	≤ 0.25
LRCT	≤ 0.25
QYFF	≤ 0.25
PYWM	≤ 0.25
EFSY	≤ 0.25
MRQP	0.285
YFQP	≤ 0.25
SEYQ	≤ 0.25
VTMP	≤ 0.25
HQNT	≤ 0.25
